In the supplement of paper PMC7125110:
± gives the standard error. Variants at the background level are over-represented here.

B1: glmS ribozyme (parent)
chain: AUAAAAGCGCCAGAACUACAGAAAUGUAGUUGACGAGGAGGAGGUUUAUCGAAUUUUCGGCGGAUGCCUCCAAA

Variants of: B1
Experiment: self-cleavage kobs at 2500 uM GlcN6P; higher = faster cleavage; RNA array
Conditions: with glucosamine-6-phosphate
How it was run: (§1)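 Tracking of barcoded ribozyme variants used a hybridised Cy3 probe at 37 °C, after in situ transcription by E. coli RNA polymerase on sequenced MiSeq chips. The flowed solution held 40 μM to 10 mM glucosamine-6-phosphate in HEPES/KCl/Mg(OAc)2 buffer, and imaging ran over ~14 h. kobs was taken from exponential decay fits of normalised per-tile medians, and kcat and KM from weighted Michaelis–Menten fits.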

Variant | self-cleavage kobs at 2500 uM GlcN6P [s⁻¹]
U30G G41U G59U G63C | < 1e-05
U30G G44C C70U | < 1e-05
U30G G44U G59C | < 1e-05
U30G G63C A64U | < 1e-05
U30G U31A G35A A39G G51C G59A | < 1e-05
U30G U49G U54A | 4.83e-05 ± 2.3e-05
U30G U57A | 4.22e-05 ± 1.5e-05
U31A A39C G63C | < 1e-05
U31A A52U | 2.52e-05 ± 1.1e-05
U31A G35A U47G U65G | < 1e-05
U31A G38U C68U | < 1e-05
U31A G38U G41U | < 1e-05
U31A G43A G44U | < 1e-05
U31A G51A G62U | < 1e-05
U31C A33C U46G | < 1e-05
U31C A36G G41A G60U | < 1e-05
U31C A39G G44C U47C U65A | < 1e-05
U31C A39U U54A C61U | < 1e-05
U31C C34U U55A G62C U65G | < 1e-05
U31C G32C A39G | 0.000381 ± 0.00015
U31C G32C G37U G41C U46A A53U U55A A64C | < 1e-05

Variant | self-cleavage kobs at 2500 uM GlcN6P [s⁻¹]
U31C G35A A52U | < 1e-05
U31C G35C A36C | < 1e-05
U31C G35C U55G | < 1e-05
U31C G40U U46G | 3.61e-05 ± 1.5e-05
U31C G59A G66U | < 1e-05
U31C G60U U69A | < 1e-05
U31C G62U | < 1e-05
U31C U65G C68G | < 1e-05
U31G A33G A36G U54C C67U | < 1e-05
U31G A39U A64C | 6.17e-05 ± 2.3e-05
U31G C34A G41U | < 1e-05
U31G C34G U46C C67U | < 1e-05
U31G C61A C67A | 0.000101 ± 2.8e-05
U31G G32A U46G A52U | < 1e-05
U31G G32U C58U | 8.74e-05 ± 2.9e-05
U31G G35A C61G | < 1e-05
U31G G38C C50U | < 1e-05
U31G G41A G63U | < 1e-05
U31G G41U C58G | < 1e-05
U31G G43C U49A | < 1e-05
U31G G63C | < 1e-05

Variant | self-cleavage kobs at 2500 uM GlcN6P [s⁻¹]
U31G U49C G63U A64U | < 1e-05
G32A A42G C58G C61U C70U | < 1e-05
G32A G35U A39C G63C C71U | < 1e-05
G32A G38C A39C A48C G59U | < 1e-05
G32A G41U C68U | < 1e-05
G32A G63U C67G | < 1e-05
G32A U45A C61G | < 1e-05
G32C A39C C61G C70U | < 1e-05
G32C A39U A52U | < 1e-05
G32C A42G U46A | < 1e-05
G32C A52U G60C | < 1e-05
G32C C34U U46A | < 1e-05
G32C C61U A64G | < 1e-05
G32C G35C U56C | < 1e-05
G32C G37U A39U C58G G59C C61U C67G C70G | < 1e-05
G32C G38A C50U | < 1e-05
G32C G38C G51A | < 1e-05
G32C G38U C58G | < 1e-05
G32C G41A G44U C50G U69C | < 1e-05
G32C G60A C61G | < 1e-05
G32C U46C C50U U65C | < 1e-05

Variant | self-cleavage kobs at 2500 uM GlcN6P [s⁻¹]
G32C U46C U56G G62U | < 1e-05
G32C U47C G51U | < 1e-05
G32C U56C U57C G66U | < 1e-05
G32U A33C A48U G62C | < 1e-05
G32U A36C C67G | < 1e-05
G32U A48U G51C | < 1e-05
G32U A52G | 3.86e-05 ± 7.8e-06
G32U C34A G41A G60U C70G | < 1e-05
G32U C34U A42G C61A | < 1e-05
G32U C34U A42G U46C A64C | < 1e-05
G32U C34U G35U G43U C61U | < 1e-05
G32U G35U A53G C58A | < 1e-05
G32U G37A A48U C61U | < 1e-05
G32U G38A G43U A53G | < 1e-05
G32U G40C U49C A53U C58G | < 1e-05
G32U U46C C68A C71U | < 1e-05
G32U U49C U57C C71U | < 1e-05
A33C A36U G37U G43U U57C G59A | < 1e-05

Variants of: B1
Experiment: self-cleavage kobs at 10000 uM GlcN6P; higher = faster cleavage; RNA array
Conditions: with glucosamine-6-phosphate
How it was run: as §1

Variant | self-cleavage kobs at 10000 uM GlcN6P [s⁻¹]
U30G G63C A64U | < 1e-05
U30G U57A | 8.3e-05 ± 1.8e-05
U31A A52U | 8.67e-05 ± 1.5e-05
U31C G62U | < 1e-05
U31G A39U A64C | 4.91e-05 ± 1.3e-05
U31G G43C U49A | < 1e-05
G32C G38A C50U | < 1e-05
G32U A52G | 6.6e-05 ± 5.2e-06
